Data on 93 sequences can be found in article PMC10726135.

Some of the results follow. At the low end of the ranking the order means little. The protein was read in a cell extract, so binding may be indirect.

The test has as its target T1, HNF4alpha8 (COS-7 nuclear extract) (UniProt P41235-5).
T1 sequence: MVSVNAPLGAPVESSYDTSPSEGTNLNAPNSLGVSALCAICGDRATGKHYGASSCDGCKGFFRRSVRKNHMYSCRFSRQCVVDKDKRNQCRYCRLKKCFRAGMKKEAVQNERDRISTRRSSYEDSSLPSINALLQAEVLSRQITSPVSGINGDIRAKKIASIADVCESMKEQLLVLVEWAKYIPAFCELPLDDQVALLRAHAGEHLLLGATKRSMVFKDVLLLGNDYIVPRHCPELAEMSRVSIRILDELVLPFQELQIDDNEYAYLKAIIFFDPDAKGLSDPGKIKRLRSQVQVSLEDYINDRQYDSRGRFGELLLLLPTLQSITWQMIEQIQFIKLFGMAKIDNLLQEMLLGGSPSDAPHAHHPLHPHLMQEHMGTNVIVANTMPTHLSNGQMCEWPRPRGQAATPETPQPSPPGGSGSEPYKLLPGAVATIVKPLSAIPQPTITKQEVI
Briefly: protein-binding microarray. To be noted: COS-7 nuclear extract on double-stranded Agilent 4x180k PBM; binding buffer, salt, pH and temperature not given; high values mean tight binding; double strand, one strand shown; sequences stand for … in …GCCTAGGGAGATTAGAGTATCGGTCGA
CCTATTTGCTTGTGAATGAAAGAGACTAGT: the binding signal (log2 normalized intensity) is 0.943. CACCAGGTGGAGTCTCCTTGAGGGCAAAGT: the binding signal (log2 normalized intensity) is 4.21. In the case of ATCTTCTTTCCTGGTGCCTCCTTATCTCCC, the binding signal (log2 normalized intensity) stood at 1.45. As for TCGCCTTTTATTTTTCCCCTGAAATATCAT, the binding signal (log2 normalized intensity) was determined as 1.92. The same measure for AGAGGTCACTCAGCAATAAATACCAAAGCC: -1.16. With ATTCATAAAGTTCTCTGGCAAATATCAGCA, the binding signal (log2 normalized intensity) was -0.474.

On to CAGAAGTCATGTCTCATTGCCCCTTGAGCT, for which the binding signal (log2 normalized intensity) is 3.87. Consider TTCCAGGGATGTTTGGCAGCTGAGGATTGT, for which the binding signal (log2 normalized intensity) stood at 1.05.

As to AGAGCAGACTATTATCAGCCAAAGTTCAGT, the binding signal (log2 normalized intensity) turned out to be 2.89. As to TGAGGTCAAGGCTTCTGCCCCAGACACGCT, the binding signal (log2 normalized intensity) was found to be 1.13.

As to GCGTATGAAGCTTTGACCCTGTTTTGTAAA, the binding signal (log2 normalized intensity) turned out to be 3.08. The same measure for CCCATTTTGTCCCTCCCTGCAGCTGAAGCA: 1.36. In the case of CTTTGGACTTTTGAACTAAGGCTGGAATGA, the binding signal (log2 normalized intensity) is 3.69. Consider AAAATACCTGGAAGTATTTATTGAGCACAC, for which the binding signal (log2 normalized intensity) was -0.121.

Take CAACCAGGAGAATTTCAGTATTAATGTCAA: the binding signal (log2 normalized intensity) was found to be 1.35. On to CCCACTCCCCCTGCTGGACACCGAGGTCCT, for which the binding signal (log2 normalized intensity) was found to be 1.84.

As to TTGCCCTTTGCCCAACCCTCTCCCACTCCC, the binding signal (log2 normalized intensity) was 4.93.

Turning to TTCCAAAGGTCACCCGTATTCCTTAGCTTA, the binding signal (log2 normalized intensity) worked out at 2.39. TTCCACGACTCCCCCGCTCACCCCTCCCCA: the binding signal (log2 normalized intensity) was found to be 6.23.

For the sequence TTTTCGGAAGAACTGGTTCTGTGGAATTTG, the binding signal (log2 normalized intensity) is 2.1. The result for CCCAAAAGGTCAATCTGGATTGTACTGTGT reads 3.55. The same measure for AGTTGGAAAATATTTCTCTGAACTTTGACC: 8.68; for GCTCAAAGGCGGCCCGGGTGGGGGTGGGGC: -1.36; for CTTCATTCTCATCTTCTATGATAAGATCTT: 0.794. In the case of TCCGCGAGGGTCCCCACCTTCCATTACCAC, the binding signal (log2 normalized intensity) stood at 0.832. On to TGACCTTTGTTTGGTCAAATACCTAATTGT, for which the binding signal (log2 normalized intensity) was determined as 2.88. Regarding CCGGGGCAAACAAGGGCAACTCTAATAGCA, the binding signal (log2 normalized intensity) was -1.38.

In the case of TCTTTGAGAAAACTCCAAAGACATTATCAC, the binding signal (log2 normalized intensity) was -0.739.

With GTCTTTCAGGAAGGAATAAAAGGCTGTTCT, the binding signal (log2 normalized intensity) was -0.147.

CACAGACAAATATTTGCTGTTACTCTAGTA: the binding signal (log2 normalized intensity) is -0.102. On to GCACATGGCATGATCCCTGACTCATAGCTC, for which the binding signal (log2 normalized intensity) is -0.946. Consider TGCCTAGAGGCCTGGGAATGCCTAGGGGGA, for which the binding signal (log2 normalized intensity) was -1.36. As to GCTGTATGTTCTAACCATAGGAGGCTGGTC, the binding signal (log2 normalized intensity) came out at 0.473. The result for TGTTAGCACTCAGTCATTGCCATCTGCAAG reads -1.27. As for TTCTAGACACCAAACACAGTTGCTGTCTAG, the binding signal (log2 normalized intensity) is -0.678. The result for CTGGGCGCTGGGAAGACAGTCTTGGGCACA reads -1.32; that for CACTCAGCTGTGTCTACCCTTTTGCCCTTT, 6.29; that for GGAGCGGCCTGCACCTGTTTCTGGAGAATG, -1.26.

With GAGTGTCAGAGGCTAAACCTAGCCCCCTTT, the binding signal (log2 normalized intensity) was determined as 3.1. Consider AGCGGGGGCAAGCCCACTCTCTGAGTCTGA, for which the binding signal (log2 normalized intensity) is -1.29. On to CCCTTGGCCTACTTAGTCCAGGTTTAGCAA, for which the binding signal (log2 normalized intensity) was -0.533. The result for GACAGGATGGGGGTGGGAGGCTGGGAGGAG reads -1.34; that for CAAATATTTGCCTAGGATTCTGGGAGGGGA, -1.22; that for CAGCACCAAGAACAAACAAAAACCAAAAAA, -1.26.

For AACATGTAGGTCAAAGAATGCCTGGGTCAA, the binding signal (log2 normalized intensity) stood at 1.82. The result for TCAGTGAGCCTTGACCTTCATGCTACTGTG reads 2.34; that for CCAAAGAAGCCACAGAAGTCTTTCCCTGCC, -1.19; that for AAGATTCAGAACCCATTAATTTAGCACTTA, -1.22. The result for TTAGGTGCTGAGCAACTATAAAACAGGAAA reads -1.26; that for TTGGACTTTGGTCATCCTTTACTTTCCCAA, 6.14. The result for GCAAATAGGATTAGGAAACCTGGTAGCGTG reads -1.23. AACTTGTTTTTGATTTTGCAGGCTGATAGG: the binding signal (log2 normalized intensity) is 1.01. The same measure for ATCAGAGTCCAGCTGTGCCCCAGTCCTTCA: 1.38; for AGATAAATAAATCAAGATCACTGCCTTGGA: -1.31. The same measure for GCCAGCACAGGAGGCCTCTCAAAGCAGGAT: -1.37.

In the case of GGGCTAGAGCTTAAAAGCCCAACACGGGCG, the binding signal (log2 normalized intensity) is -1.27.

Regarding TGGGCTGGGAGCTAATGAGCACATTCTTCA, the binding signal (log2 normalized intensity) is -1.3. Consider TTCCCTGTCGCTATCTTATCTGGGCCAGGT, for which the binding signal (log2 normalized intensity) was 0.392.

As for GGACTGGGCTGGAACACAAAGAAAGCCAAA, the binding signal (log2 normalized intensity) is -1.29. Consider CTGTCGGAATTTGCCCTGTGGTCTAGCTTG, for which the binding signal (log2 normalized intensity) was determined as 2.26.

With GACAGAAACCAAGCTGTCCGACTGCACACC, the binding signal (log2 normalized intensity) is -1.31. The same measure for GAATGTATTGAGAAGAAACCTTTGCCCAAC: 3.64. The result for ACCTTTGATCATTTGAGGGTGACACTGCTC reads 1.66; that for CTGACTGGAAGAGCCTGCAAGGGAGACCAG, -1.36.

Regarding GCCTTTTACCTTGGCAGCCACTGAGGCTCT, the binding signal (log2 normalized intensity) is -1.05. For CACTCCCACACTGGTAACCTTTAGTCTCCA, the binding signal (log2 normalized intensity) turned out to be 4.

Consider GAAAGTAGTTGGGGATTGTGTAACATCTAA, for which the binding signal (log2 normalized intensity) is -0.201. The result for AGGTAGGGCCTACCTGCCTGAGCTATCTGT reads -1.13.

For TATTCCATATCAGCTTTCTTTTCCAACCAT, the binding signal (log2 normalized intensity) is 1.18. Turning to AACAAAAAGGGCAAAGGTCAGCTCATTCCC, the binding signal (log2 normalized intensity) was 6.81. The result for CCACTGCGACCTTTGCCCTCCCTAAATCCA reads 7.84. As for AGGCAATGACTCCAAAGTTCAAACTCTGAA, the binding signal (log2 normalized intensity) came out at 2.84. GAGGCCAGTTTGACCTTTGCATTCTTACCC: the binding signal (log2 normalized intensity) was found to be 7.03.

For GTTAAGACCTACATTAAGACCACCTCTATG, the binding signal (log2 normalized intensity) was -1.28. CCCTCAGGGAATCCTGCATTATCAGGCAAG: the binding signal (log2 normalized intensity) was -0.72. Turning to GCAGGGAGGAGCGCATCGGGCGCCAGCGCC, the binding signal (log2 normalized intensity) is -1.36. The same measure for CCAGACAGGGGGGCGCCTACGGACGGGTAA: -1.39; for TACCCCTGTGGTTGACCTTTAGTCTCTAGC: 7.47; for ATTTCACCCAGGTATGACAAGCATGCACTG: -1.29. The same measure for TCCTCACCCCACTTTGGTTCACCGCTCACT: 1.08; for GTGGCTATGGCTGGGATATCAGGTATTGCC: -0.907. The result for CCTGTGTGTACTGGGCAGATAACAGCGAAC reads -0.211; that for TCTGGTCAGACTGAGAGAGCAGGGCCCGAG, -1.31; that for GGAAGGTTTCACCCTGAGGAATCCCATTCC, -0.915. In the case of TGCCAACAGGTGCTCTTTATCAGCACCAAG, the binding signal (log2 normalized intensity) is -1.32. The result for CTCTGGATGCAGGTCGCCGGGAAAACCCGG reads -1.1. The result for CCAGGCGACTGGGCCAGGAGCAGGAGCAGA reads -1.28. CAAGAGGTTTTAGGCTATCAGACAGCCACA: the binding signal (log2 normalized intensity) is -1.21. As for GAGCAAAGCTGATAAAGAGGACAGAGCCTG, the binding signal (log2 normalized intensity) is -1.04. The same measure for GGATCCGCAGCCAGGGCTGTTTTCTCCAGT: -1.29; for TTGCCATGTGACAATTCTTCCTTCATCTGG: 0.528. The result for GCCCAGAGGAAGGAATGCACATGCCTTAAG reads -1.35. The result for GGCTTAAACCTTTAATGATGAGTCCAAGTT reads 2.92.
